The whole screen tested about 110,000 compounds, of which about 230 (0.21%) showed an effect of 50% or more. The list shows a part of the results.
target: DPAP1 (Plasmodium falciparum, UniProt Q8IIJ9); experiment: primary screen, percent inhibition; read by cleavage of a fluorogenic dipeptide substrate; higher = more effect of the substance; set-up: species or system P. falciparum D10 trophozoite lysates; single well
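Note: 30 min substrate incubation versus DMSO and 10 µM JCP410 controls.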

Chain of DPAP1 (Q8IIJ9 whole entry, looked up): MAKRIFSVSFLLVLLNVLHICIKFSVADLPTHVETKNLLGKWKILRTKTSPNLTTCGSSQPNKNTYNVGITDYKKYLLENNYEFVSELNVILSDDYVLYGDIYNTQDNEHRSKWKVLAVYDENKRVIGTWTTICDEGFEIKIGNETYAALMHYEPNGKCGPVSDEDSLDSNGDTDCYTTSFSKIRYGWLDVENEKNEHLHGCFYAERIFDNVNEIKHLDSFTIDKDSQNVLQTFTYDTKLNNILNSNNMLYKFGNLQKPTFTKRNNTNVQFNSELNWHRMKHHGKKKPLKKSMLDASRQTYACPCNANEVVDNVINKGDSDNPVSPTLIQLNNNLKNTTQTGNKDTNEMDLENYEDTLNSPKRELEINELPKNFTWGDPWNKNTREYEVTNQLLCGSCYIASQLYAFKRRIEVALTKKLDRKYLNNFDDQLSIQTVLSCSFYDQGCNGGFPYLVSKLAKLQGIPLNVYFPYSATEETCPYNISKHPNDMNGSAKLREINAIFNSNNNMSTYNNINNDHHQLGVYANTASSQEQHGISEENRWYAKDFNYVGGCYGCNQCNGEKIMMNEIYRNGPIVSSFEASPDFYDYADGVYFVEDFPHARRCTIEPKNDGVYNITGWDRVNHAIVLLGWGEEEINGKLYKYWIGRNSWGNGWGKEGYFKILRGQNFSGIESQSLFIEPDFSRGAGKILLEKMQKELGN

Structure (SMILES)	% Inhibition @ 10 uM [%]
COC(=O)C1=CNC=C(C(=O)OC)C1c1ccccc1Cl	-5.03
CN(C)CCNC(=O)c1ccc(S(=O)(=O)N2CCCCC2)cc1	-6.92
CN1CCN(Cc2cccc(Cl)c2)CC1	4.81
C=CCn1c(SCC(=O)Nc2nnc(CC)s2)nnc1-c1cccs1	2.18
COc1ccc(C(CC(=O)O)NS(=O)(=O)c2ccc(C)cc2)cc1OC (stereo not drawn)	0.279
Cc1ccc(CNC(=O)Cn2ccc3cc(S(=O)(=O)N4CCCC4)ccc32)o1	-3.14
CCN1CCN(C(=O)Cn2cc(S(=O)(=O)N3CCCC3)c(S(=O)(=O)N3CCCC3)c2)CC1	0.802
CCOC(=O)C1=C(C)N(c2ccc(C)cc2)C(=O)C1	-0.631
Cc1ccccc1C(=O)Nc1ccc(-c2ccc([N+](=O)[O-])cc2)cc1	-4.33
COc1ccc(C2CC(=O)N=C(NC(=O)c3cccc(C)c3)N2)c(OC)c1OC (stereo not drawn)	-1.59
CCOC(=O)c1sc(NC(=O)C(CC)Sc2nnc3c4ccccc4n(C)c3n2)nc1C (stereo not drawn)	-6.95
O=C1C=C(NCCN2CCOCC2)CC(c2ccco2)C1 (stereo not drawn)	3.96
CC1=C(C(=O)NC2CCCc3ccccc32)C2(CCCCC2)OC1=O (stereo not drawn)	-0.138
C=CCO/C(O)=C1/C(C)=Nc2ncnn2C1c1ccncc1 (stereo not drawn)	-3.37
Cc1cc(N2CCOCC2)nc(-c2ccc(Br)cc2)n1	-2.36
COc1ccc(C)cc1N(CC(=O)NCc1ccccc1C)S(=O)(=O)c1ccccc1	-1.61
CC(C)CC(C(=O)NCC#N)c1cccc(-c2csc(N3CCC(NC(C)(C)C)CC3)n2)c1 (stereo not drawn)	1.7
Cc1cccc(C(=O)Nc2cccc(O)c2)c1	3.49
CCc1nn(CC(=O)NCC(C)c2ccccc2)c(=O)c2cc3sccc3n12 (stereo not drawn)	-5.19
COc1ccc(-c2cc(C(=O)Nc3cc(C)nn3-c3ccccc3)no2)cc1	0.0654
Cc1cc(-c2ccc(C)c(S(=O)(=O)N3CCC(N(C)CC4CCCO4)CC3)c2)on1 (stereo not drawn)	7.83

Structure (SMILES)	% Inhibition @ 10 uM [%]
CN(Cc1ccccc1)S(=O)(=O)c1ccc(NC(=O)Cc2ccccc2)cc1	-0.185
COc1ccc(-c2cc(C)no2)cc1S(=O)(=O)N1CCC(N(C)CCN2CCOCC2)CC1	5.65
COc1ccc(CCNC(=O)C(=O)Nc2ccc3c(c2)OCCO3)cc1OC	2.22
CC(C)(C)Nc1nc(C(N)=O)nc(N2CCOCC2)n1	-4.62
COc1cccc(C(=O)Nc2nc3ccc(Cl)cc3s2)c1	4.12
Cc1cc(NC(=O)c2onc(C)c2Cl)n(-c2ccccc2)n1	3.2
C=CCSc1nc(C)c2cc(C)ccc2n1	5.46
N=C1S/C(=C\c2ccc(-c3ccccc3F)o2)C(=O)N1c1nccs1	-4.72
COc1ccc(NC(=O)CSc2nc(C)c(Cc3ccccc3)c(O)n2)cc1	-0.413
CCOc1ccccc1C(=O)Nc1cc(C(F)(F)F)ccc1Cl	1.84
Cn1c(=O)c2c(nc(N3CCOCC3)n2CCCNC2=NCCCC2)n(C)c1=O	-1.84
Cc1ccc(C(=O)N/C(=C\c2cccs2)C(=O)NC2CCN(Cc3ccccc3)CC2)cc1C	-2.68
CCc1cccc(CC)c1NC(=O)C(C)NS(=O)(=O)c1ccc(C)cc1 (stereo not drawn)	-0.318
CC(C)N(Cc1nc(-c2ccccc2)no1)C(=O)CCCN1C(=O)c2ccccc2C1=O	-7.55
CC(C)C[C@H](NC(=O)OCc1ccccc1)C(=O)NCC#N	0.556
COc1ccc(C(=O)Nc2cc(-c3ccccc3)[nH]n2)cc1	5.45
O=C(NC1CCCC1)c1ccc(CSc2nc3ccncc3[nH]2)cc1	4.95
O=C(O)c1cccc(NC(=O)c2ccccc2F)c1	0.708
C=CC[C@@H]1Cc2c(Br)ccc(Br)c2[C@@H](CC=C)N1	0.279
O=C(O)c1cccc(NC2=C(Cl)C(=O)N(c3ccc(Cl)cc3Cl)C2=O)c1	-4.48
Cc1ccc(-c2csc(/C(C#N)=C/c3ccc(Cl)cc3)n2)c(C)c1	-8.12

Structure (SMILES)	% Inhibition @ 10 uM [%]
O=C(Nc1ccccc1C(=O)O)c1cc(S(=O)(=O)N2CCCCC2)c(Cl)cc1Cl	-5.23
CC1CCc2c(C(=O)NC3CCN(Cc4ccccc4)CC3)csc2C1 (stereo not drawn)	-1.65
Cc1noc(C)c1S(=O)(=O)NCc1ccc(Cl)cc1	-0.426
CN1CCN(CCCNC(=O)C2c3ccccc3C(=O)N(C3CCCC3)C2c2cccs2)CC1 (stereo not drawn)	3.04
CC1=NN(c2cc(C)nc(-c3ccccc3O)n2)C(=O)C1	-5.62
Cc1cc(C)c2c3c(sc2n1)C(c1ccccc1)C(C#N)=C(N)O3 (stereo not drawn)	-3.9
CN1C(N)=NC(=O)/C1=C/c1ccc2c(c1)OCO2	-4.03
CCc1ccc2[nH]cc(CCN)c2c1	0.847
O=C(O)C1C2CCC(C2)C1C(=O)Nc1nc2ccccc2s1 (stereo not drawn)	-0.996
CCN(CC)CCOc1cccc(Cl)c1Cl	3.76
CN1CCN(S(=O)(=O)c2ccc3c(c2)C(=O)c2ccccc2C3=O)CC1	-1.98
COc1ccc(CCNC(=O)CCCc2nnc3n(C)c(=O)c4sccc4n23)cc1OC	1.68
COc1ccc(N2C(=O)C3ON(c4ccccc4)C(c4ccco4)C3C2=O)cc1 (stereo not drawn)	4.33
CCN(CC)c1ccc(C2C(C#N)=C(N)N(c3ccc(Cl)cc3)C3=C2C(=O)CC(C)(C)C3)cc1 (stereo not drawn)	3.15
Cc1ccc(-c2csc(NC(=O)C3CC4CCC3C4)n2)cc1 (stereo not drawn)	-8.86
O=C(CSc1ccccc1C(=O)O)Nc1ccccc1	-6.43
COc1ccc(C(=O)N2CCN(C(=O)c3ccccc3F)CC2)cc1	-3.24
CCOC(=O)c1c(NC(=O)C(C)(C)C)sc2c1CCN(C(=O)OCC)C2	1.72
Cc1cc(S(=O)(=O)NCCSCc2ccc(Cl)cc2)ccc1F	2.18
O=C(O)c1ccc(C(=O)c2ccc3c(c2)C(=O)N(c2cnc(O)nc2O)C3=O)cc1	4.42
Cc1cccc(NC(=O)COc2ccc(C)c(C)c2)c1	2.55
